Source: PMC4336329 (PLoS ONE, 2015)
The whole screen tested about 310,000 compounds, of which about 14,000 (4.5%) showed an effect of 50% or more. The effect is printed as a negative number. This is one part of the list.

These compounds were tested against human ether-à-go-go-related gene (hERG) potassium channel (human, UniProt Q12809) (assay: primary screen, population patch clamp on CHO cells stably expressing hERG).
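Further: peak tail current of the secondary pulse compared with the same well before compound.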

Chain of human ether-à-go-go-related gene (hERG) potassium channel (Q12809 whole entry, looked up): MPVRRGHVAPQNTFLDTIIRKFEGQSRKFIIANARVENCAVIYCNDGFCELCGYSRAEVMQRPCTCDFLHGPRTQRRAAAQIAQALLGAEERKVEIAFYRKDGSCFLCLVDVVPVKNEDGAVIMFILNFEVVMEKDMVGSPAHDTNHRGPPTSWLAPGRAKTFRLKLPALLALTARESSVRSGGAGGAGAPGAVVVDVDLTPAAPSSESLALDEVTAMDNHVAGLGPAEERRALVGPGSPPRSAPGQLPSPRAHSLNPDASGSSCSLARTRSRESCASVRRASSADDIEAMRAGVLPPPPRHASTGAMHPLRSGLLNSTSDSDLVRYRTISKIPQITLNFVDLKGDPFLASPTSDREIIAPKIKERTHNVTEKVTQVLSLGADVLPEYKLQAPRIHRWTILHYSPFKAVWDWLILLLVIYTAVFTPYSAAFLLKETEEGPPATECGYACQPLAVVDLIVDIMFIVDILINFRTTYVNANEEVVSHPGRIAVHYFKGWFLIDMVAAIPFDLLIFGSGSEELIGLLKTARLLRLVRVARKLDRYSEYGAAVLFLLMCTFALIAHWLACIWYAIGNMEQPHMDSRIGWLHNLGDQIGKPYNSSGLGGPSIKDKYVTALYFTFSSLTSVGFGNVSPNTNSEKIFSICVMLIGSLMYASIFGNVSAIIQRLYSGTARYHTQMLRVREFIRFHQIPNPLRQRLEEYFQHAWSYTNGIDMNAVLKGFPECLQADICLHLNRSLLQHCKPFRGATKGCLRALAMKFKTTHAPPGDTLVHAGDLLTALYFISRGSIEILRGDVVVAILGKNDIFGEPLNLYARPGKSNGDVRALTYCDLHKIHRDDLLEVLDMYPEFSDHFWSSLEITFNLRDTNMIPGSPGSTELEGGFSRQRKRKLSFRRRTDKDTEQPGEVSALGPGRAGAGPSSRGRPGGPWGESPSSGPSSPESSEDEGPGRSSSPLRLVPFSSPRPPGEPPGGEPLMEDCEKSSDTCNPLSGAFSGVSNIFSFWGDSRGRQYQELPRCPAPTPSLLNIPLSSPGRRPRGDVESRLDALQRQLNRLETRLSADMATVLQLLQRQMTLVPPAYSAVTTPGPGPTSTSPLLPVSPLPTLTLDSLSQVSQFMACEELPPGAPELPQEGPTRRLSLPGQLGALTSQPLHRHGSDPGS

SMILES | hERG current change (%, negative = inhibition) at 10uM [%]
Cc1ccc(-n2c(SCC(=O)NCCN3C(=O)CSC3=O)nnc2-c2cccc(C)c2)cc1 | -42
CN(C)c1cccc(N=C2C=C(N3CCOCC3)CC(C)(C)C2)c1 | -60.5
CCN(CC(=O)NCc1cccs1)S(=O)(=O)c1ccc(C(C)C)cc1 | -53.3
Cc1nn(CC(=O)NC(C)C)c(C)c1[N+](=O)[O-] | 3.85
CCOC(=O)c1nc(S(C)(=O)=O)ncc1Cl | 9.56
Cc1cccc(NC(=O)C2CCN(S(=O)(=O)c3ccc4c(c3)OCCCO4)CC2)n1 | -17.3
Cc1ccc2c(c1)N(C(=O)CCC(=O)NC1CCCCCC1)CC(C)O2 (stereo not drawn) | -18.5
O=C(CSCc1ccc(Cl)cc1Cl)Nc1ccccc1C(=O)Nc1ccc(C(=O)O)cc1 | 10.3
COc1cccc(-c2nc(CS(=O)(=O)CC(=O)NC3CCC(C)CC3)c(C)o2)c1 (stereo not drawn) | -15.9
COC(=O)CNC(=O)COC(=O)c1cc(SC)ccc1Cl | 20.9
Cc1cccc(-n2nc3c(c2NC(=O)CCC2CCCCC2)CS(=O)C3)c1C (stereo not drawn) | -10.2
Br.CCSC1=NCN(CCCC(=O)O)CN1 | 10.9
CCCCn1c(N)c(N(C)C(=O)c2ccccc2Oc2ccccc2)c(=O)[nH]c1=O | 8.41
CCC1Oc2ccc(C)cc2N(CC(=O)NCC2CCCO2)C1=O (stereo not drawn) | 12.5
O=C(Nc1nc2nc(-c3ccccc3)cc(-c3ccccc3)n2n1)c1ccco1 | -44.8
CCCCn1c(N)c(N(CCOC)C(=O)COC(=O)CCOc2ccccc2C)c(=O)[nH]c1=O | 21.4
NS(=O)(=O)c1ccc(CCNC(=O)CNC(=O)Cc2cccc3ccccc23)cc1 | 28.5
O=C(O)c1ccccc1P(=O)(c1ccccc1)c1ccccc1 | 12.9
CCOc1ccc(N(CC(=O)Nc2cccc(OC)c2)S(C)(=O)=O)cc1 | -1.16
CCCCOc1c(Br)cc(/C=C2\N=C(C)OC2=O)cc1OCC | 6.14
COc1ccc(-c2cc(OC(=O)c3ccc(F)cc3)c3c(C)oc(C)c3c(=O)c2)cc1 | 4.01
Cc1onc(-c2c(F)cccc2Cl)c1C(=O)NCCCN1CCOCC1 | 1.76

SMILES | hERG current change (%, negative = inhibition) at 10uM [%]
COc1ccc(N2CCN(C(=O)c3ccc(CNS(=O)(=O)c4cc(C)ccc4C)cc3)CC2)cc1 | -11
NS(=O)(=O)c1ccc(CCNC(=O)NC23CC4CC(CC(C4)C2)C3)cc1 | 0.713
O=C(CCCCC(=O)NCCc1ccccc1)NCCc1ccccc1 | 15.6
CN(C)C(=O)c1ccc(NC(=O)c2ccc(-c3ccc(Cl)cc3)o2)cc1 | -28.2
COc1cc(/C=C2\CCCc3c2nc2ccccc2c3C(=O)O)cc(Cl)c1O | 4.11
CCCCCOc1ccc(C(=O)C(c2ccccc2)N2CCOCC2)cc1.Cl (stereo not drawn) | 3.16
CCc1c(C)sc(NC(=O)C2CCCCC2C(=O)O)c1C(N)=O (stereo not drawn) | 14.3
Cc1ccc(Cn2c(C3CCCN3c3nc(C)cs3)nc3cc(C(=O)NCCCO)ccc32)cc1 (stereo not drawn) | -17.5
CCCCOc1cccc(C2/C(=C(\O)c3ccc4c(c3)OCCO4)C(=O)C(=O)N2CCN2CCOCC2)c1 (stereo not drawn) | 19.5
CCOC(=O)c1[nH]c2cc3c(cc2c1NC(=O)CN1CCCCC1C)OCO3 (stereo not drawn) | -42.7
COc1ccc(N2CCN(C(CNC(=O)C(=O)NCC(OC)OC)c3ccco3)CC2)cc1 (stereo not drawn) | 15.6
O=[N+]([O-])c1cccc(S(=O)(=O)Nc2ccc(-c3ccc(N4CCOCC4)nn3)cc2)c1 | -25.6
CCCNC(=O)C(=O)N/N=C/c1cccs1 | 18.1
COc1ccccc1OCc1nnc(SCC(=O)N2CCCCC2)n1-c1ccccc1 | -23.7
Cc1noc(C)c1-c1nnc(-c2ccc(C(F)(F)F)cc2)o1 | 4.76
COc1ccc(S(=O)(=O)Cc2ccc(C(=O)NCc3ccccc3)o2)cc1 | -14.3
COc1ccc(Cl)cc1-c1nc(SCC(=O)NC(C)C)n[nH]1 | -9.03
C=C(C)CSc1nnc(-c2ccc(OC)c(OC)c2)n1N | -7.69
CN(CCOc1ccc(Cl)cc1)C(=O)C1CCN(C(=O)c2ccc(F)cc2)CC1 | -69.9
O=C(CCC(=O)OCc1ccc(Cl)cc1)Nc1cccc([N+](=O)[O-])c1 | -25.1
O=C(c1c(O)c2ccccc2oc1=O)C1CCCCC1 | 14.3
O=C(COc1ccc2c(c1)OCO2)Nc1cccc(F)c1 | 19.8

SMILES | hERG current change (%, negative = inhibition) at 10uM [%]
Cc1cc(C(=O)OCC(=O)N2CC(C)OC(C)C2)c2ccccc2n1 (stereo not drawn) | -15.7
Br.C=CCN1C(c2ccccc2)=CS/C1=C(/C#N)c1nnc(N2CCOCC2)n1-c1ccccc1 | -12.4
CCCCCCOc1ccc(C(=O)O)cc1C#N | 13.5
COc1ccccc1CN(C)C(=O)c1cnc(C)cn1 | 19
CC(=O)N1CCN(Cc2nc3cc(NC(=O)Nc4ccccc4)ccc3n2C)CC1 | 20.6
O=C(/C=C1\NC2(CCCC2)Cc2ccccc21)C(=O)N/N=C/c1ccccc1O | 19.1
CCC(C)[C@H](NC(=O)OC(C)(C)C)C(=O)N/N=C/c1ccc2cc(OC)ccc2n1 (stereo partly drawn) | -13.7
Cn1cnnc1SCC(=O)NNC(=O)COc1ccc(Br)cc1 | -10.6
Cc1cc(C(=O)CSc2cccc[n+]2[O-])c(C)n1-c1ccc(Br)cc1 | -68.6
CC1(C(=O)NC2CCCC2)CCC(=O)N1Cc1cccs1 (stereo not drawn) | 1.82
CC(C)CC(=O)NC(=S)Nc1ccc(S(=O)(=O)N2CCCC2)cc1 | 35.2
O=C(CSc1nc(=O)n2ccccc2n1)NCc1ccccc1Cl | -4.75
CC(C)c1nnc(NC(=O)C2CCN(C(=O)c3ccco3)CC2)s1 | 0.275
C=CCn1c(CNC(=O)c2ccco2)nnc1SCC(=O)c1ccccc1 | 2.5
CCOC(=O)COc1ccc(C(=O)CC)cc1OC | 22.5
CCCCn1c(-c2ccc(OC(F)F)cc2)nc2c1c(=O)[nH]c(=O)n2CC(C)C | -15.9
Cc1ccc(NC(=O)Nc2ccc3c(c2)CCC3)cc1 | -37.5
O=C(NCCc1c[nH]c2ccccc12)c1ccc(F)cc1F | 5.94
COc1ccc(C(=O)N2CCCC(c3nc(-c4cc(OC)c(OC)c(OC)c4)no3)C2)cc1 (stereo not drawn) | -29.8
CCC(=O)Nc1ccc(Cl)c(NC(=O)c2cccc(OC)c2)c1 | 14.2
CCn1c2ccccc2c2cc(NC(=O)COC(=O)c3cc(S(=O)(=O)N4CCCCC4)ccc3Cl)ccc21 | 4.8
O=C(Nc1ccccc1)Nc1ccncc1 | 6.4

SMILES | hERG current change (%, negative = inhibition) at 10uM [%]
CCc1ccc(NC(=S)NC2CC3CCC(C2)N3Cc2ccco2)cc1 (stereo not drawn) | -45.5
O=S(=O)(c1ccccc1)N1CCC(Oc2ccc(-n3cnnn3)cc2)CC1 | -74.8
O=C(COC(=O)c1cc(=O)[nH]c2ccc(Br)cc12)c1ccccc1 | 23.3
CCn1c(C)c(C(C)=O)c(N2CCN(c3ccc(OC)cc3)CC2)nc1=S | -19
COc1ccc(CCC(=O)Nc2ccc(C)c(S(=O)(=O)N(C)C)c2)cc1OC | -17.5
CCC(C)NS(=O)(=O)c1ccc(NS(=O)(=O)c2ccccc2[N+](=O)[O-])cc1 (stereo not drawn) | 5.33
C=CCn1c(COc2ccc(F)cc2)nnc1SC(C)C(=O)NCC1CCCO1 (stereo not drawn) | -16.8
COc1ccc(C(=O)N/N=C/c2cc3ccccc3[nH]c2=S)cc1 | -5.03
NC(=O)COC(=O)CC1CC2CCC1C2 (stereo not drawn) | 16.1
CN1CCN(C(=O)COc2ccc(S(=O)(=O)NCc3ccccc3)cc2Cl)CC1 | -16.3
CCc1cc2cccc(C)c2nc1SCC(=O)N1CCN(C(=O)c2ccco2)CC1 | -54.4
CCCNC(=O)c1onc(CSc2ccccc2)c1C(=O)NCCC | -3.81
Cc1cccc(NC(=S)N/N=C/c2cccn2Cc2ccc(F)cc2)c1 | -9.66
COc1ccc2cc(-c3cccnc3)ncc2c1 | -7.88
COc1ccc(OC)c(/C=N/Nc2cc(C)nc(N3CCOCC3)n2)c1 | 5.7
CC12CCC(C(=O)Nc3cccc(NC(=O)C45CCC(C)(C(=O)O4)C5(C)C)n3)(OC1=O)C2(C)C | 4.86
CCCCNC(=S)N(C)/N=C/c1ccc(F)cc1 | -8.72
CCCOc1ccc2oc(=O)c3c(c2c1)CCCN3C(=O)CN1CCc2ccccc2C1 | -24.1
Cc1cccc(-c2c3c(=O)n(C)c(=O)n(C)c3cn2C(C)(C)C)c1 | 0.456
Cc1ccc(C)n1-c1c(C(=O)NN)cnn1-c1ccccc1 | 15.2
Cc1nc(N(C)C)c2sc(=S)n(Cc3ccccc3)c2n1 | 10.9
